# Measurements: PubChem BioAssay (NCATS)
# Inconclusive results, whose numbers are uncertain, are shown. Potencies of inconclusive entries are left out as doubtful fits.
# What was measured:
# [1] = qHTS Screen of the MIPE 4.0 Collection Against Ewings Sarcoma (RDES) (AID 1259252); further: nearly all actives have a fitted effect of over 35% in size
# Summary of the method: (§1)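 Viability screen: 48 h incubation at 37C, 95% humidity, 5% CO2 with serially titrated compound, followed by CellTiter-Glo readout.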
# [2] = qHTS Screen of the MIPE 4.0 Collection Against Ewings Sarcoma (TC71) (AID 1259253); further: nearly all actives have a fitted effect of over 40% in size
# Summary of the method: as §1
# [3] = qHTS Screen of the MIPE 4.0 Collection Against Ewings Sarcoma (EW8) (AID 1259255); further: nearly all actives have a fitted effect of over 35% in size
# Summary of the method: as §1
# [4] = qHTS assay for small molecule agonists of the antioxidant response element (ARE) signaling pathway measured by Nrf2-dependant transcriptional activity - cell viability counter screen (AID 720653; active means well fitted curve in the direction sought with a large enough effect in the repeat runs; inconclusive means weak or mixed curves; inactive means no such curve, though single readings can be large; an effect the other way counts as inactive or inconclusive); conditions: ARE-bla HepG2 viability, CellTiter-Glo ATP luminescence, 16 h; max response: stronger effect = lower value
# Summary of the method: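 ARE-bla HepG2 cells treated with compounds for 16 h at 37C; this counter screen measures viability as intracellular ATP by CellTiter-Glo luminescence after 30 min at room temperature.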
# [5] = qHTS assay for cell viability of HEK293 cells (AID 743288); conditions: ATP luminescence (CellTiter-Glo), 18 h; max response: stronger effect = lower value; further: nearly all actives have a fitted effect of over 50% in size
# Summary of the method: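 ATP luminescence (CellTiter-Glo) reports metabolically competent cell number after parental HEK293 cells, 2,000/well, were treated with DMSO-dissolved compounds for 18 h at 37 C; reagent incubation 30 min, room temperature.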
# [6] = qHTS Assay for Identifying Gametocytocidal Compounds (AID 743244); conditions: P. falciparum 3D7 stage III-V gametocytes, alamarBlue, 72 h; max response: stronger effect = lower value
# Summary of the method: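 3D7 gametocytes, stages III–V, 20,000/well; cpd 72 h, 37 °C/5% CO2; + alamarBlue 24 h; fluor. Ex 525/Em 598.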
# Potency means the concentration at half of the fitted maximal effect; tags describe the fitted curve by direction and shape.
smiles,measurement,setting,value
NC(CO)(CO)CCc1ccc(Sc2cccc(OCc3ccccc3)c2)cc1Cl,Potency,[1],"inconclusive [inhibitor, single point]"
same,Potency,[2],"inconclusive [inhibitor, single point]"
same,Potency,[3],"inconclusive [inhibitor, single point]"
CCN(CC)C(=S)SSC(=S)N(CC)CC,Potency,[4],"inconclusive [cytotoxic, full curve]"
same,Potency,[5],"inconclusive [cytotoxic, partial curve, poor fit]"
CC(C)(C)NC[C@H](O)COc1nsnc1N1CCOCC1,Potency,[6],"inconclusive [inhibitor, full curve]"
CO[C@H]1C[C@@H]2CC[C@@H](C)[C@@](O)(O2)C(=O)C(=O)N2CCCC[C@@H]2C(=O)O[C@H]([C@H](C)C[C@@H]2CC[C@H](OCCO)[C@H](OC)C2)CC(=O)[C@H](C)C=C(C)[C@@H](O)[C@@H](OC)C(=O)[C@H](C)C[C@H](C)C=CC=CC=C1C,Potency,[6],"inconclusive [inhibitor, single point]"
same,Potency,[1],"inconclusive [inhibitor, partial curve]"
same,Potency,[2],"inconclusive [inhibitor, partial curve]"
same,Potency,[3],"inconclusive [inhibitor, partial curve]"
